In PubChem BioAssay AID1346428 (National Center for Advancing Translational Sciences (NCATS), 2018) one finds activation data, which are given here for 81 molecules.

Among all 48,000 compounds or so, about 1,200 (2.5%) were called active. Inconclusive results (about 2%) are left out.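 The calls were made as follows: active = activation of at least 60% and not above a set upper limit (about 1 call in 100 departs from these limits); inconclusive = activation of 40% to 60%, or above that upper limit; inactive = activation under 40%.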 This is one part of the list.

Chain of UniProt O75388 (O75388 whole entry, looked up): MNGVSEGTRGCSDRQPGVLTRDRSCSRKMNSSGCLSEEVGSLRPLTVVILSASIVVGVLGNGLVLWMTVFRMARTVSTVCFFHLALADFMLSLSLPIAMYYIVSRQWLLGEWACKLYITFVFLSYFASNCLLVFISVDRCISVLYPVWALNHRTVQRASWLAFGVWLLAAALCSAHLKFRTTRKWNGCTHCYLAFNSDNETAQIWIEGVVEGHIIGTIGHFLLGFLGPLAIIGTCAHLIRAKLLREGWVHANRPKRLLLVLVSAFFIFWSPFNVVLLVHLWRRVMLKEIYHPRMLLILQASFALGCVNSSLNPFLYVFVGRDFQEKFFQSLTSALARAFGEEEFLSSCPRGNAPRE

This experiment concerns the target Probable G-protein coupled receptor 32 (Homo sapiens) (UniProt O75388). In words: qHTS for Agonists of Human Resolvin D1 Receptor DRV1. Also: 0% is about no effect. Conditions: CHO-K1 GPR32 beta-arrestin PathHunter luminescence, 90 min; at 76.9 µM; stronger effect = higher value; zero percent set by DMSO-only wells. The gist of the method:
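Engineered CHO-K1 line co-expressing GPR32-ProLink and EA-beta-arrestin. Compound treatment lasted 90 min at 37 °C. Luminescence was recorded after 1 h with substrate at ambient temperature, relative to DMSO basal wells.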
`Cc1nc2c(-c3ccccc3)c(C)nn2c(C)c1CCC(=O)Nc1ccccc1F`: the activation is active: 60.5%. On to `Cc1ccccc1C1=CCN(c2ncc(NC(=O)c3ccc(Cl)cc3)cc2C(=O)O)CC1`, for which the activation is inactive: 6.07%. Consider `Cc1nc2nc(SCC(=O)NCCc3ccc(Cl)cc3)nn2c(C)c1Cc1ccccc1Cl`, for which the activation was inactive: -17.6%. Turning to `COC(=O)c1ccccc1NC(=O)c1cc(C)nc2c1c(C)nn2-c1ccc(C)cc1`, the activation was inactive: 1.79%. As for `COc1cccc(OCC(=O)NC2CC(=O)N(c3ccc4c(c3)OCCO4)C2)c1` (stereo unspecified), the figure is inactive: -12.6%; as for `COc1ccc(C2CC(=O)c3c([nH]c(C(=O)OC4CCCCCC4)c3C)C2)cc1` (stereo unspecified), inactive: 3.32%; as for `COc1ccc(OC)c(NC(=O)CSC2=Nc3ccccc3C3=NC(CC(=O)NCc4ccc(F)cc4)C(=O)N23)c1` (stereo unspecified), inactive: -25.6%. As for `COc1cc(OC)c(NC(=O)n2ncc3cc(Cl)ccc32)cc1Cl`, the figure is inactive: -13.8%; as for `Cc1ccc2nc(-c3ccc(NC(=O)c4ccccc4S(C)(=O)=O)cc3)sc2c1`, inactive: 9.4%. Consider `Cc1ccc(Cl)cc1NC(=O)NCc1cccn1Cc1ccc(F)cc1`, for which the activation was inactive: -16.7%. Take `O=C(Nc1ccccc1O)c1cc(S(=O)(=O)N2CCCC2)ccc1Cl`: the activation was inactive: -4.36%. The result for `Cc1ccc(CNC(=O)CSc2ncc(S(=O)(=O)c3ccc(C)c(Cl)c3)c(=O)[nH]2)cc1` reads inactive: 1.67%; that for `Cc1ccc(NC(=O)N2CCN(c3nnc(C)c4c(C)n(-c5ccc(Cl)cc5)nc34)CC2)c(C)c1`, inactive: 2.59%; that for `CC(C(=O)O)c1ccc(C(=O)c2ccccc2)s1` (stereo unspecified), inactive: -12.1%. For `COc1ccc2c(c1)c1c(c(=O)n(-c3ccc(OC)c(OC)c3)c(=O)n1CC(=O)N1CCCC1)n2C`, the activation is inactive: -2.35%. The result for `CCOc1ccc(OCC)c(NC(=O)CCc2nc3cccnc3n2Cc2cccs2)c1` reads inactive: -24.3%. On to `CCOC(=O)c1cccc(NC(=O)CC2C(=O)N(c3ccc(C)cc3)C(=O)N2Cc2cccc(OC)c2)c1` (stereo unspecified), for which the activation was inactive: -8.79%.

For the molecule `COc1cc(Cl)c(C)cc1NC(=O)CSc1nc2c(c(=O)[nH]1)CCCC2`, the activation is inactive: 25.6%. With `CN(C)c1ccc(CNC(=O)c2cnc3sc(N4CCCCCC4)nn3c2=O)cc1`, the activation is inactive: -1.37%. Turning to `CCCCNC(=O)CCCn1c(=O)c2ccccc2n(Cc2c(C)cc(C)cc2C)c1=O`, the activation is inactive: -3.94%. Regarding `COC(=O)N1CCCc2cc(S(=O)(=O)N3CCN(c4ccccc4)CC3)ccc21`, the activation was inactive: -8.48%. On to `Cc1ccc(C)c(Cn2c(=O)n(CCC(=O)NCc3ccc4c(c3)OCO4)c(=O)c3sccc32)c1`, for which the activation is inactive: -22.1%. For `Cc1cccc(Cc2c(C)nc3nc(SCc4ccccc4Cl)nn3c2C)c1`, the activation is inactive: -6.53%. For `CCOc1ccc(NC(=O)C2CCN(S(=O)(=O)c3c(C)noc3/C=C/c3cccs3)CC2)cc1`, the activation is inactive: -19.2%.

For the molecule `CCCCNC(=O)CN1C(=O)COc2ccc(S(=O)(=O)N3CCCCCC3)cc21`, the activation was inactive: -15.7%. For `Cn1cccc1-c1cc2n(n1)CCC(=O)N2CCCC(=O)NCc1ccc(F)cc1`, the activation was inactive: -15.3%. For `COc1ccc(C(=O)Nc2ccc3oc(-c4ccc5ccccc5c4)nc3c2)cc1Br`, the activation was inactive: -11.5%. Take `COC(=O)CNC(=O)N1CCN(S(=O)(=O)c2ccc3c(ccn3C)c2)CC1`: the activation is inactive: -5.24%. Turning to `CCOc1ccc(-c2nnc(SCC(=O)c3ccccc3)n2-c2ccccc2)cc1`, the activation is inactive: -2.21%. The result for `Cc1ccc(NC(=O)c2ncoc2-c2ccco2)cc1Cl` reads inactive: -8.34%; that for `Cc1cccc(C)c1NC(=O)Cn1c(SCC(=O)NCc2ccccc2)nc2ccccc21`, inactive: -2.73%. `Cc1cc(=O)[nH]c2nnc(SCc3ccc(C(F)(F)F)cc3)n12`: the activation is inactive: 36.2%. For the molecule `CCOC(=O)c1[nH]c(C)c(CCC(=O)Nc2cccc(SC)c2)c1C`, the activation is inactive: -11.2%. Turning to `COc1ccc2cc(CNc3ccc(OC)c(OC)c3)c(=O)n(CC(=O)Nc3ccccc3F)c2c1`, the activation is inactive: -16.4%. Take `CC(C)CCNC(=O)c1ccc2c(c1)N(Cc1ccccc1F)C(=O)c1ccccc1S2(=O)=O`: the activation is inactive: -10.6%. Consider `O=S(=O)(c1ccc(-c2csc(=Nc3ccc(OC(F)(F)Cl)cc3)n2CCCO)cc1)N1CCCC1`, for which the activation was inactive: 1.14%.

Take `O=C(Nc1cc2ccc(O)cc2oc1=O)c1ccccc1`: the activation is inactive: -10.9%.

With `Fc1cccc(Cl)c1CNCCSc1nnnn1-c1ccccc1`, the activation is inactive: -9.42%. Turning to `COc1cccc(C(=O)N(Cc2ccco2)c2ccccn2)c1`, the activation is inactive: -4.1%. `O=C(CNC(=O)c1ccccc1F)OCc1cc(=O)n2nc(C3CCCCC3)sc2n1`: the activation was inactive: 9.46%. On to `CCOC(=O)c1ccc(NC(=O)CSc2nccn2-c2cc(C)cc(C)c2)cc1`, for which the activation is inactive: -1.88%.

`CCOc1ccccc1NC(=O)Nc1cc2c(cc1N1CCCCC1)n(CC)c(=O)n2CC`: the activation was inactive: -31%. On to `O=C1CC(c2ccc(F)cc2)c2c(c3ccccc3[nH]c2=O)O1` (stereo unspecified), for which the activation was inactive: 5.9%. As to `CC(=O)c1ccc(N2CCN(C(=O)CCn3cnc4onc(-c5ccc(F)cc5)c4c3=O)CC2)cc1`, the activation was inactive: 29.2%. The result for `CC(=O)N(CC(O)CN(C(C)=O)c1c(I)c(C(=O)NCC(O)CO)c(I)c(C(=O)NCC(O)CO)c1I)c1c(I)c(C(=O)NCC(O)CO)c(I)c(C(=O)NCC(O)CO)c1I` (stereo unspecified) reads inactive: -9.79%; that for `O=C(Nc1c(-c2ccccc2)nc2ccccn12)c1ccccc1F`, inactive: -0.759%; that for `Cc1ccc(-c2noc(-c3cc(-c4ccc(F)cc4)n[nH]3)n2)cc1`, inactive: 6.12%. In the case of `CCn1cc(C(=O)NCCc2ccc(C)cc2)c(=O)c2cc(S(=O)(=O)N3CCc4ccccc4C3)ccc21`, the activation is inactive: 10.4%.

Regarding `Cc1cc(C)cc(NC(=O)CNS(=O)(=O)c2ccc3nc(C)sc3c2)c1`, the activation was inactive: -9.22%. `CN1C(=O)Cc2cc(S(=O)(=O)CCC(=O)Nc3ccc(OC(F)(F)F)cc3)ccc21`: the activation was inactive: -8.97%. As for `CCOc1ccc(OC(=O)c2c(-c3ccccc3Cl)noc2C)cc1`, the figure is inactive: 30.2%; as for `CCN(C(=O)C1CCCN(c2ncnc3c2nc2n3CCCCC2)C1)c1cccc(C)c1` (stereo unspecified), inactive: 26.6%. With `Cc1ccc(NC(=O)CN2C(=O)c3ccccc3Sc3ccc(C(=O)N4CCOCC4)cc32)c(Cl)c1`, the activation was inactive: -24.8%. On to `CCN(CC)S(=O)(=O)c1ccc2oc(C(=O)Nc3cc(C)ccc3OC)c(C)c2c1`, for which the activation is inactive: -4.95%. As for `CCc1cc2c(cc3c(=O)n(CC(=O)NCc4cc(Br)ccc4OC)ncn32)s1`, the figure is inactive: -12.6%. On to `CCc1cc2c(cc3c(=O)n(CC(=O)NC4CCCCC4)nc(CC)n32)s1`, for which the activation was inactive: -1.84%. Turning to `Cc1cn(C)c(CC(=O)N2CCN(c3cccc(C(F)(F)F)c3)CC2)c1C(=O)O`, the activation is inactive: 1.14%. Take `CCOC(=O)CCN(c1ccccc1)S(=O)(=O)c1cc(-c2cc(C)no2)ccc1C`: the activation is inactive: -25.6%.

`Cc1ccc(C(=O)NCC(=O)OCc2cc(=O)n3c(C)csc3n2)cc1`: the activation was inactive: 0.748%. Turning to `CC(=O)N1CCc2c(sc3c2c(=O)n(-c2ccccc2C)c(=O)n3CC(=O)c2ccccc2)C1`, the activation is inactive: -0.946%. As for `Cc1cc(C)c2oc(C(=O)Nc3c(C)n(C)n(-c4ccccc4)c3=O)cc(=O)c2c1`, the figure is inactive: -1.41%; as for `O=C(NCC(c1cccnc1)N1CCc2ccccc21)c1ccc(F)c(F)c1` (stereo unspecified), inactive: -29.2%. Turning to `Cc1cccc(C(=O)Nc2cccc(OCc3cc(=O)n4cc(C)sc4n3)c2)c1`, the activation was inactive: 3.02%. Take `Cc1ccc(C(C)C)c(OCC(=O)NCC2(N3CCOCC3)CCCCC2)c1`: the activation was inactive: -28.5%. Take `CC(C)n1cc2c(c1-c1ccccc1Cl)c(=O)n(C)c(=O)n2C`: the activation was inactive: -10.5%. With `Cc1ccc(C)c(NC(=O)Cn2c(=O)n(-c3ccccc3C)c(=O)c3c2c2cc(C)ccc2n3C)c1`, the activation is inactive: -3.81%. As for `Cc1ccc(-n2cc3c(c2-c2ccccc2Br)c(=O)n(C)c(=O)n3C)cc1N`, the figure is inactive: -33.9%; as for `COc1ccccc1N1CCN(CCCNC(=O)c2nnc(Cc3c(F)cccc3Cl)o2)CC1`, inactive: 3.16%.

Regarding `COc1ccccc1-c1nc2c(c(SCC(=O)Nc3ccccc3F)n1)Cc1c(CO)cnc(C)c1O2`, the activation is inactive: -14.5%. The result for `COc1ccc(-c2cc(-c3ccccc3)c(C#N)c(SCC(O)CS(=O)(=O)Cc3ccccc3)n2)cc1` (stereo unspecified) reads inactive: -2.87%; that for `CCN1CCN(CCCNC(=O)Cn2c(-c3cccs3)cc3ccccc32)CC1`, inactive: 2.63%.

As for `Cc1ccc2c(=O)cc(C(=O)N(Cc3ccccc3Cl)C3CCS(=O)(=O)C3)oc2c1` (stereo unspecified), the activation is inactive: 5.24%. On to `COc1ccccc1C(=O)Nc1c(C(=O)N2CCN(c3ccc(F)cc3)CC2)oc2ccccc12`, for which the activation is inactive: 4.87%. In the case of `CCOc1ccc(CCNC(=O)CS(=O)(=O)Cc2nc(-c3cccc(Cl)c3)oc2C)cc1`, the activation was inactive: 38.8%.

For the molecule `COc1ccc(NC(=O)C2CCCN(C(=O)c3cnn(-c4ccccc4)c3-n3cccc3)C2)cc1` (stereo unspecified), the activation was inactive: 3.99%. Take `CC(O)CNC(=O)C(=O)Nc1c2c(nn1-c1ccc(Cl)cc1)CSC2` (stereo unspecified): the activation was inactive: -32.4%. As for `COc1ccc(NC(=O)CC2C(=O)N(c3ccccc3)C(=O)N2CCC2=CCCCC2)cc1` (stereo unspecified), the activation is inactive: -1.65%. `CCOc1cccc(C(=O)Nc2nnc(S(=O)(=O)N(C)c3ccc(C)cc3)s2)c1`: the activation is active: 63.1%. In the case of `Cc1ccc2c(c1)c(=O)c(C(=O)c1ccccc1)cn2Cc1ccccc1F`, the activation is inactive: -19.7%. In the case of `COc1ccc(S(=O)(=O)N(CC(=O)Nc2ccc(OC)cc2OC)c2ccc(Cl)cc2)cc1`, the activation was inactive: -3.72%.

Regarding `COc1cc(NC(=O)C2CCN(S(=O)(=O)c3c(C)noc3/C=C/c3cccs3)CC2)cc(OC)c1`, the activation was inactive: -22.8%.
